This note sets out measurements from the supplement of paper PMC3334620.

In all, about 33,000 sequences were measured (“E-score (-0.5 to 0.5)”: median about -0.032, highest 2% from about 0.36 on). This is one part of the list.

For the test, the target named is T1, Sko1 (UniProt Q02100).
T1 sequence: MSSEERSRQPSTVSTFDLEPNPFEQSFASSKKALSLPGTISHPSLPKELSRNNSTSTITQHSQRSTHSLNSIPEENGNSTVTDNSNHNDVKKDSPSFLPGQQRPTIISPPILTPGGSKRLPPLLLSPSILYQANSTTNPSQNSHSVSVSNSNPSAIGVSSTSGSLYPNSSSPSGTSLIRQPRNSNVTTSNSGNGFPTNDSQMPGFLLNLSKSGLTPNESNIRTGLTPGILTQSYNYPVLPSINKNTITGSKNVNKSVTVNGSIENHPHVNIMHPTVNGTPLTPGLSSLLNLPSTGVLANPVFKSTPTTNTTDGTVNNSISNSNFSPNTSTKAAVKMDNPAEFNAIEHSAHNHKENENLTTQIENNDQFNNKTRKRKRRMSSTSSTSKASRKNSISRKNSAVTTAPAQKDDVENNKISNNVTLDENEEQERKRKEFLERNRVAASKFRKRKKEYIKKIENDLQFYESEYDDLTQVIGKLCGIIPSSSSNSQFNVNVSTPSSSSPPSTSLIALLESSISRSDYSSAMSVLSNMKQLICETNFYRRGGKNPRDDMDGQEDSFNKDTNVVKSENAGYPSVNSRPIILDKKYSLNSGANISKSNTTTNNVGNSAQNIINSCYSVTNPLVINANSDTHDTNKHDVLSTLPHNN
The test is described as follows: PBM E-score (8-mer binding enrichment) (E-score (-0.5 to 0.5)); higher = stronger / more preferred TF binding; most listed sequences are background and not binding sites. Particulars: protein concentration: 200 nM; construct: GST-full length. The method, then: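 Universal 'all 10-mer' protein binding microarrays (Agilent AMADID 015681) probed with GST-tagged S. cerevisiae TFs (full-length or DBD) made by in vitro transcription/translation (PURExpress), about 100-200 nM. Bound TF was detected with fluorescent anti-GST. Each ungapped 8-mer (which stands for itself and its reverse complement) is scored by the PBM enrichment score (E-score), a modified Wilcoxon-Mann-Whitney statistic from -0.5 to +0.5, computed with the Universal PBM Analysis Suite. Scale: above 0.35 generally sequence-specific binding.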
Take AGAATAAG: the “PBM E-score” value was 0.0855.
Under CCTGTAGA stands -0.114; under GCCATCTA, -0.0869.
The result for AGATCAAA reads 0.0161; that for ATACCCTG, -0.139.
The result for CTGAGTAA reads 0.046; that for ATAATAAC, 0.107; that for ACTCCACG, 0.0133.
On to CTAAGCCA, for which the “PBM E-score” value is -0.138.
The result for AAAAAATT reads 0.143.
The result for AGTCCCAG reads -0.195; that for GGGCCGCA, -0.304; that for CCGTTAAC, -0.0852.
Consider CTCCTTGA, for which the “PBM E-score” value was -0.159.
Under AGTTGGAC stands 0.0514.
Regarding ACGAGTAT, the “PBM E-score” value amounted to 0.114.
Under ACCAAGCT stands 0.0443; under GGCAATCA, -0.071.
The result for CATGTTGG reads -0.0925.
Under CACCAGGG stands -0.316.
In the case of AAACGGAA, the “PBM E-score” value is 0.133.
As for GCGGAGGA, the “PBM E-score” value was -0.277.
Take CCTATGGA: the “PBM E-score” value was -0.21.
For ACGCGTGG, the “PBM E-score” value worked out at 0.106.
The result for CCAGACGC reads -0.155.
CAACTAAC: the “PBM E-score” value was 0.122.
Turning to CCTGGTGC, the “PBM E-score” value is -0.204.
Under TGCCCAAA stands -0.262; under AACCTAAC, 0.0881; under AAGGTGGG, -0.384.
The result for GGCATTTA reads -0.0199; that for CCAGATAA, -0.0248.
Under ACCCTGCG stands 0.07.
Consider AAGTGCCT, for which the “PBM E-score” value is -0.219.
Take AGCACTAC: the “PBM E-score” value was -0.0579.
The result for ATGAGCTG reads -0.0587; that for ATGTGTAC, 0.128.
The result for ATAGCGCC reads -0.105; that for CAAGCAGA, -0.0379; that for CAACCGGC, -0.283.
Consider ATTAGCTA, for which the “PBM E-score” value was 0.131.
Under ATTCGCCC stands -0.184.
The result for AGGCTTTG reads -0.246.
The result for CCGTGACA reads -0.14.
Regarding CGGGTGGC, the “PBM E-score” value was -0.283.
As to GATCTGTA, the “PBM E-score” value is -0.0458.
Under AGGTCATG stands 0.0635; under GTATCTGA, 0.144; under AGGTCAGA, -0.147.
Regarding TTAGTCAA, the “PBM E-score” value came out at 0.0708.
As for ATGCTCGG, the “PBM E-score” value is -0.109.
The result for CTCCCGGC reads -0.278; that for AAGTGGAT, -0.11.
The result for AAACGTCT reads 0.341; that for CGTTGTCA, 0.163.
In the case of CCGAGGCC, the “PBM E-score” value was -0.349.
ATACTTCC: the “PBM E-score” value was -0.161.
Under CAACTGTC stands -0.0925; under GAATACTC, -0.0176; under ATACGAGA, 0.113.
ACGTGGGG: the “PBM E-score” value was 0.316.
Under GACTGGGC stands -0.262; under GTCGATGA, 0.1.
The result for GCGAGGTA reads -0.163; that for CGATCTGC, -0.138; that for CGTTGAAG, 0.0614.
The result for ACAGGGGA reads -0.235.
AGTCAGCA: the “PBM E-score” value was 0.175.
Under CCTTGTCC stands -0.314; under TACGTGGA, 0.424.
The result for CTCTGCTC reads -0.3.
The result for AGCTTAAT reads 0.0147.
For the sequence CCTCTAGA, the “PBM E-score” value was -0.162.
Under ATACTTGC stands 0.149; under GCGAGTAC, -0.0244.
Under CCGCAAAA stands 0.0518; under ATTAGACC, -0.165; under AGGACCCC, -0.236.
The result for CGGGCCCA reads -0.0705.
Regarding CCGATTCA, the “PBM E-score” value is -0.0674.
Under GTGGGAAA stands -0.00764.
Regarding CAACGACC, the “PBM E-score” value is -0.00955.
The result for CTCACCCA reads -0.244.
Under CCGGGTAC stands -0.313; under ATTAGTAG, 0.106; under GACTATCC, -0.236.
